# Legend:
# [1] = system: human dopamine-producing cell SH-SY5Y
# Experimental: To a culture solution of human dopamine-producing cell SH-SY5Y, 1 μM DJ-1 bound compound (No. 23) dissolved in 0.01% DMSO was administered for 20 h, then the cultured solution was treated with 50 μM 6-OHDA (6-hydroxydopamine) for 24 h or with 125 μM 6-OHDA for 1 h; and the ratio of cell death was investigated by MTT assay. For comparison, a control (−) without addition of the DJ-1 bound compound and a control (DMSO) with addition of only DMSO, and a sample with addition of dopamine were used and subjected to the same method.
# [2] = system: human dopamine-producing cell SH-SY5Y; test: Active oxygen species caused by 6-OHDA, fluorescent probe DCFA-DA; format: cell-based; conditions: 1 μM compound for 20 h, 40 μm 6-OHDA for 10 min, compared to dopamine
# Experimental: Subsequently, the active oxygen species was measured by a fluorescent spectrophotometer.
# [3] = system: human dopamine-producing cell SH-SY5Y; test: Cell death caused by hydrogen peroxide in cultured cells, MTT assay; format: cell-based; conditions: 1 μM compound for 24 h
# Experimental: HT13 represented by formula (6) (provided from a person, Hoshi University), HT19 represented by formula (12) (provided from a person, Hoshi University), and HT20 represented by formula (13) (provided from a person, Hoshi University) at 1 μM each were administered for 24 h, then 250 μM H2O2 was added and treated for 2 h, and the ratio of the cell death was investigated by MTT assay. As control, a control (−) without addition of a compound was used.
# [4] = Hydroxyl radical elimination, ESR-spin trapping method using DMPO; conditions: Fenton reaction, 25 μM FeSO4, 100 μM H2O2; No. 23 at 1, 10 or 100 μM; thiourea 500 mM
# Experimental: Hydroxyl radical is the most important neurotoxicity factor in dopamine-induced neurodegeneration. Therefore, to investigate whether a DJ-1 bound compound directly acts on hydroxyl radicals, evaluation was carried out by an electron spin resonance (ESR)-spin trapping method using 5,5-dimethylpyrroline-N-oxide (DMPO).
# To 200 μL of a 100-mM phosphate buffer reaction mixture containing 25 μM diethylene-triamine pentaacetic acid, 25 μM FeSO4, 100 μM H2O2, and 112.5 mM DMSO, the 1 μM, 10 μM, or 100 μM DJ-1 compound (No. 23) and 500-mM thiourea were added respectively. For comparison, a phosphate buffer reaction mixture containing dethylene-triamine pentaacetic acid, FeSO4, and DMSO, as well as the phosphate buffer reaction mixture further containing H2O2 were prepared. These drugs and reagents were dissolved in milli-Q water. The reaction mixture was transferred to a flat quartz cuvette, and introduced in X-band JEOL RFR-30b radical analysis system. Hydroxyl radicals generated from Fenton reaction between Fe^2+ and H2O2 are trapped by DMPO. From 1 min after addition of DMPO, stable DMPO—OH adducts were measured. Signal of Mn^2+ was used as the internal standard signal, […]
structure (smiles),measurement,setting,value
COc1cc(C(=O)Nc2ccc(-c3cn4cccc(C)c4n3)cc2)cc(OC)c1OC [No. 23],toxicity for cultured cells,[1]; 1 μM compound,did not exert toxicity
same,cell death caused by 6-OHDA (FIGS. 8 and 9),"[1]; 1 μM compound for 20 h, then 50 μM 6-OHDA for 24 h or 125 μM 6-OHDA for 1 h, MTT",significantly suppresses the cell death
same,production of active oxygen species caused by 6-OHDA (FIG. 10),[2],significantly suppresses the production of active oxygen species
same,cell death compared to the control (FIG. 1),"[3]; then 250 μM H2O2 for 2 h, SH-SY5Y, MTT",suppressed
same,cell death for different concentrations of hydrogen peroxide (FIG. 2),"[3]; then various concentrations of H2O2 for 2 h, up to the high H2O2 concentration of 500 μM, controls showed increase of cell death from 150 μM",significantly suppressed cell death
same,DMPO-OH adduct ESR signals (FIGS. 13 and 14),[4],a decrease in peaks was not observed
